In all, about 340,000 compounds went through this assay and about 12,000 (3.5%) were called active. The shares of active, inactive and inconclusive entries below differ from those in the screen. Calls follow the shape of the dose curve; as a rule, active = well fitted inhibition curve with a large enough effect; inconclusive = small, poorly fitted or top-dose-only effect, or another doubt; inactive = no such curve, though single readings can be large or run the other way. Potencies of inconclusive entries are left out as doubtful fits. Some compounds were tested as several samples or in several runs, with calls that do not always agree.
Experiment: qHTS Assay for Inhibitors of Hepatitis C Virus (HCV)
Conditions: Huh7.5.1 HCVcc-Cre (HCVcc is cell-culture hepatitis C virus) infection, luciferase reporter, 44 h; activity change, negative = inhibition: at 41.8 µM (top of the series) unless noted
Outline: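 Cells (1,000/well) were plated 4 h before compound, then infected with HCVcc-Cre virus (~0.5 moi). After 44 h further culture, infection was read as luciferase luminescence following a 15 min substrate incubation at room temperature.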
For `Cc1cc(C)c(C(=O)Cn2nc(C)c([N+](=O)[O-])c2C)cc1C`, the Potency was inconclusive [inhibitor, single point]. With `O=C(NCC(c1ccco1)N1CCOCC1)c1ccc(Cl)cc1` (stereo unspecified) the “activity change, negative = inhibition” value was inactive: 10.7%. With `O=C(NC1CCCC1)C(c1ccc(Cl)cc1)N(Cc1ccc(F)cc1)C(=O)CCl` (stereo unspecified) the Potency was inconclusive [inhibitor, single point]. With `COc1cc(CNc2ccccc2SC)cc(OC)c1OC` the Potency was inconclusive [inhibitor, single point]. In the case of `CCOC(=O)Nc1ccc2c(c1)N(C(=O)CCN1CCN(C)CC1)c1ccccc1S2`, the Potency is reported as inconclusive [inhibitor, single point]. In the case of `CCN(C[C@H]1N[C@@](CC)(C(=O)OC)[C@H]2C(=O)N(Cc3ccccc3)C(=O)[C@@H]12)S(=O)(=O)c1ccc(-c2ccccc2)cc1`, the Potency is reported as inconclusive [inhibitor, single point]. With `O=C(NCCc1cccc(Cl)c1)c1cccc([N+](=O)[O-])c1` the “activity change, negative = inhibition” value was inactive: -9.15%. In the case of `O=C(O)C1CCCN1S(=O)(=O)c1ccc(Cl)c(Cl)c1` (stereo unspecified), the “activity change, negative = inhibition” value is reported as inactive: 2.66%. With `COc1ccc(C2=Nn3c(nnc3-c3cc(C)[nH]n3)SC2)cc1` the Potency was inconclusive [inhibitor, single point]. For `O=C(c1ccccc1)C(CN1CCCC1)c1ccccc1` (stereo unspecified), the Potency was inconclusive [inhibitor, single point]. With `O=C(Cc1ccccc1)NN1C(=O)C2C3C=CC(C4CC34)C2C1=O` (stereo unspecified) the “activity change, negative = inhibition” value was inactive: 26%. For `CN(CC(=O)Nc1cc(Cl)cc(Cl)c1)Cc1cccs1`, the Potency was inconclusive [inhibitor, single point]. In the case of `CCCCn1c(=O)c(C(=O)NCc2ccccc2)c(O)c2ccccc21`, the Potency is reported as inconclusive [inhibitor, partial curve]. In the case of `COc1ccc(C2CC(c3cccs3)=NN2C(=O)CSc2nc(=O)n3cc(C)ccc3n2)cc1` (stereo unspecified), the Potency is reported as inconclusive [inhibitor, full curve]. In the case of `CC(=O)Nc1cccc(NC(=O)CSc2nnnn2Cc2ccccc2)c1`, the Potency is reported as inconclusive [inhibitor, single point]. In the case of `Cc1ccc(NC(=O)C2CCCN(S(=O)(=O)c3cnc[nH]3)C2)cc1F` (stereo unspecified), the Potency is reported as inconclusive [inhibitor, single point]. With `COc1ccc(CSc2nnnn2-c2ccc(O)cc2)cc1F` the Potency was inconclusive [inhibitor, partial curve]. For `Cc1ccc(C(=O)Nc2ccc3c(c2)OCO3)cc1`, the Potency was inconclusive [inhibitor, single point]. With `O=C(NC1CC1)c1cc(-c2ccc(Br)cc2)nc2ccccc12` the “activity change, negative = inhibition” value was inactive: 4.43%. For `Cc1ccc(C(=O)N2CCCCC2)cc1NC1=C(Cl)C(=O)N(Cc2ccccc2)C1=O`, the Potency was inconclusive [inhibitor, partial curve, poor fit]. With `CC(C)(C)c1ccc(/C=C/C(=O)NC2=NCCS2)cc1` the Potency was inconclusive [inhibitor, partial curve]. With `Cc1nccc(-c2ccc3c(c2)OCO3)n1` the “activity change, negative = inhibition” value was inactive: -0.754%. With `Cc1cc(C)c(Cn2cnc3ccccc32)c(C)c1` the Potency was inconclusive [inhibitor, partial curve, poor fit]. In the case of `C=CC[C@H](CC(=O)OC(C)(C)C)C(=O)OC[C@@H]1CCCN1C(=O)[C@@H](CC=C)CC(=O)N[C@H](CO)Cc1ccccc1`, the Potency is reported as inconclusive [inhibitor, single point]. With `Cc1ccc(S(=O)(=O)N2CCC(C(=O)Nc3nnc(C)s3)CC2)cc1` the “activity change, negative = inhibition” value was inactive: 4.31%. In the case of `CC(=O)Nc1ccc2ccc3cccc4ccc1c2c34`, the Potency is reported as inconclusive [inhibitor, partial curve]. In the case of `O=C1[C@H]2[C@@H](c3ccc(F)cc3)N3C(=O)N(c4ccc(Br)cc4)C(=O)[C@@]3(Cc3ccccc3)[C@H]2C(=O)N1C1CCCCC1`, the “activity change, negative = inhibition” value is reported as inactive: 1.93%. For `CCn1c(SCC(=O)NC2CCCCC2)nnc1-c1cc2cccc(OC)c2o1`, the Potency was inconclusive [inhibitor, partial curve]. For `CC(C)Sc1nc2c(c(=O)[nH]c(=O)n2C)n1CCc1ccccc1`, the “activity change, negative = inhibition” value was inactive: 8.02%. In the case of `Cn1c(=O)c2c(nc(N3CCCCCC3)n2Cc2cccc3ccccc23)n(C)c1=O`, the Potency is reported as inconclusive [inhibitor, single point]. With `COC(=O)Nc1sc2c(c1C(=O)N1CCOCC1)CCC(C)C2` (stereo unspecified) the Potency was inconclusive [inhibitor, single point]. In the case of `CCN1/C(=C/C=C/c2oc3ccc(-c4ccccc4)cc3[n+]2CC)Oc2ccc(-c3ccccc3)cc21`, the Potency is reported as active: 0.891 µM. With `CC1CN(Cc2ccccc2)C(=S)NC1=O` (stereo unspecified) the “activity change, negative = inhibition” value was inactive: 33.1%. With `COC(=O)c1c(NC(=O)/C=C/C(=O)O)sc(C)c1-c1ccc(C(C)C)cc1` the “activity change, negative = inhibition” value was inactive: 3.62%. With `COc1cccc(/C=N/NC(=O)c2c(C)nc3ccc(Br)cn23)c1O` the Potency was active: 4.47 µM. In the case of `COc1ccc(NC(=O)C(=O)NCC2CCCN2S(=O)(=O)c2cc(C)ccc2C)cc1` (stereo unspecified), the Potency is reported as inconclusive [inhibitor, partial curve]. For `Cc1ccc(-n2ncc3c(NCc4cccnc4)ncnc32)c(C)c1`, the Potency was active: 10 µM. In the case of `O=C(c1ccc(CSc2nc3ccncc3[nH]2)cc1)N1CCN(c2cccc(Cl)c2)CC1`, the Potency is reported as active: 7.94 µM. With `O=C(NC(=S)NNC(=O)c1cc2ccccc2cc1O)c1ccco1` the Potency was inconclusive [inhibitor, single point]. For `CC(C)C(=O)Nc1nc2cc3c(cc2s1)OCCO3`, the Potency was inconclusive [inhibitor, partial curve]. With `O=C(Nc1ccccc1)Nc1ccc(Oc2cccnc2)nc1` the “activity change, negative = inhibition” value was inactive: -30%. In the case of `Cc1ccc(C(=O)N2CCN(c3ccc(NC(=O)COc4ccccc4C)cc3)CC2)cc1`, the Potency is reported as active: 11.2 µM. With `Cc1cc(OCC(=O)NC2CC2)c2c(C)c(C)c(=O)oc2c1` the “activity change, negative = inhibition” value was inactive: -15.4%. In the case of `CN(C)C1NC(=O)c2cc(-c3ccccc3)sc2N1` (stereo unspecified), the Potency is reported as inconclusive [inhibitor, partial curve]. With `CN(C)/C=C/C(=O)c1ccc(N2CCN(c3ncc(C(F)(F)F)cc3Cl)CC2)cc1` the Potency was inconclusive [inhibitor, single point]. For `CC(OC(=O)c1ccccc1NCc1ccco1)C(=O)Nc1ncc(Cl)cc1Cl` (stereo unspecified), the Potency was inconclusive [inhibitor, single point]. With `CCOC(=O)C1CCN(S(=O)(=O)c2ccc3c(c2)CC(=O)N3)CC1` the “activity change, negative = inhibition” value was inactive: 20.4%. In the case of `COc1cnc(-c2ccccc2)nc1OC`, the “activity change, negative = inhibition” value is reported as inactive: 7.69%. In the case of `COc1ccc(N(C)S(=O)(=O)c2cccc(C(=O)N3CCN(S(=O)(=O)c4ccc(C)cc4)CC3)c2)cc1`, the Potency is reported as inconclusive [inhibitor, single point]. For `COc1ccc(NC(=O)CSc2nnc(-c3ccoc3C)n2CC2CCCO2)cc1` (stereo unspecified), the “activity change, negative = inhibition” value was inactive: 8.32%. With `CCOc1cccc(C2C(C(=O)c3ccc(C)o3)=C(O)C(=O)N2c2nccs2)c1` (stereo unspecified) the Potency was inconclusive [inhibitor, partial curve, poor fit]. With `C=CCn1c(O)c(C(C)=Nc2ccc(N(C)C)cc2)c(=O)[nH]c1=O` the Potency was inconclusive [inhibitor, partial curve]. In the case of `O=C(Nc1nccs1)c1cccc(S(=O)(=O)N2CCCCC2)c1`, the Potency is reported as inconclusive [inhibitor, single point]. For `CC(=O)N1c2ccc(S(=O)(=O)NCC3CCC(C(=O)NCc4ccco4)CC3)cc2CC1C` (stereo unspecified), the “activity change, negative = inhibition” value was inactive: -6.4%. In the case of `O=C(CN1CCc2cc3c(cc2C1)OCCCO3)Nc1c(F)cccc1F`, the “activity change, negative = inhibition” value is reported as inactive: -22.7%. With `O=C(NCCC1=CCCCC1)C1CCCN(S(=O)(=O)c2cccc3cccnc23)C1` (stereo unspecified) the Potency was inconclusive [inhibitor, partial curve, poor fit]. For `CC1(C)CC(=O)C2=C(C1)N1C(=C(C#N)C2c2ccc(Cl)cc2)N=C(N)c2ccccc21` (stereo unspecified), the Potency was active: 8.91 µM. For `Cc1cc2oc(=O)cc(CSc3nc(N)cc(N)n3)c2cc1C`, the Potency was inconclusive [inhibitor, partial curve]. With `Cc1ccc(-c2nc(SCC(=O)c3c(N)n(C)c(=O)n(C)c3=O)n[nH]2)cc1` the Potency was inconclusive [inhibitor, single point]. With `CCCCN(C)CCCNC(=O)c1cn(C)c2ccc(S(=O)(=O)N(C)C3CCCCC3)cc2c1=O` the Potency was inconclusive [inhibitor, single point]. For `COc1ccc([N+](=O)[O-])cc1N(CC(O)CN1CCCC1)S(=O)(=O)c1ccc(C)cc1` (stereo unspecified), the Potency was inconclusive [inhibitor, single point]. In the case of `Cc1nc2c(-c3ccccc3)c(C)nn2c(SCC(N)=O)c1Cc1ccccc1`, the Potency is reported as inconclusive [inhibitor, single point]. For `CCCNC(=O)COC(=O)c1ccccc1OCC(=O)Nc1ccc(Br)cc1`, the “activity change, negative = inhibition” value was inactive: 12.8%. In the case of `CC(=O)N1CCC2(CC1)CC(=O)c1cc(OCC(=O)NCc3ccco3)ccc1O2`, the “activity change, negative = inhibition” value is reported as inactive: 10.2%. For `Cc1ccc(C(C(=O)NC2CCCCC2)N(C(=O)c2csnn2)C2CCCC2)o1` (stereo unspecified), the Potency was “inactive”. For `COc1ccc(C)cc1Nc1nc(-c2ccccc2O)nc2ccccc12`, the Potency was inconclusive [inhibitor, partial curve]. For `Cc1ccc(C(=O)N/C(=C\c2ccccc2)C(=O)NCc2ccncc2)cc1`, the Potency was inconclusive [inhibitor, single point]. For `CC(C(=O)O)c1ccc(N2Cc3ccccc3C2=O)cc1` (stereo unspecified), the “activity change, negative = inhibition” value was inactive: 5.66%. For `[O-]/C(=C(\C(=S)Nc1ccccc1F)[n+]1ccccc1)c1ccc(OC(F)F)cc1`, the “activity change, negative = inhibition” value was inactive: 1.82%. In the case of `COC(=O)c1c(C)nc2c(c(SC)nn2-c2ccccc2)c1N`, the Potency is reported as active: 11.2 µM. In the case of `O=S(=O)(Nc1ccc2c(c1)nc1n2CCN(Cc2ccccc2)C1)c1ccccc1`, the Potency is reported as active: 5.62 µM.

Reference: PubChem BioAssay AID651820 (National Center for Advancing Translational Sciences (NCATS), 2012)
% is scaled to controls: 0 for no effect and ±100 for the full control effect; potency is read from the fitted curve at half-maximal effect; tags tell the direction and shape of the fitted curve.
